Results taken from PubChem BioAssay AID485344 (National Center for Advancing Translational Sciences (NCATS), 2010).
Among all 340,000 compounds or so, about 6,900 (2%) were called active. Cut-off read from the data, not from the text of the source: active = inhibition above about 30%; inactive = below that, where a call was filed. Only a part is listed here, and it is no random draw. The source gives no active or inactive call for entries shown without one.

biological target: D(2) dopamine receptor (Homo sapiens) (UniProt P14416); assay: HTS Assay for Allosteric Antagonists of the Human D2 Dopamine Receptor: Primary Screen for Antagonists; settings: HEK293 TREx D2 cells, calcium flux, dopamine EC80; at 10 µM; stronger effect = higher value; note: 0% is about no effect
Sequence of UniProt P14416 (P14416 whole entry, looked up): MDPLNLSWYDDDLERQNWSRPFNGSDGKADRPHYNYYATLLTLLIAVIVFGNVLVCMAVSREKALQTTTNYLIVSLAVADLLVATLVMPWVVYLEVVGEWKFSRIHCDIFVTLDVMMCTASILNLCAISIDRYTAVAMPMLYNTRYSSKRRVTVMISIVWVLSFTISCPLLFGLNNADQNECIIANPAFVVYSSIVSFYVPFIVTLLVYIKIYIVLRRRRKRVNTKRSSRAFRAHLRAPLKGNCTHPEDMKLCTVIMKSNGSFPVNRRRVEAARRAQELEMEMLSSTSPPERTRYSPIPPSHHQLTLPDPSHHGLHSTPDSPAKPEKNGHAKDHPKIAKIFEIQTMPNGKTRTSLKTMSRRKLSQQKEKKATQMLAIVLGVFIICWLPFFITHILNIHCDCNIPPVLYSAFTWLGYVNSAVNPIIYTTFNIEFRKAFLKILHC
Outline: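 Inhibition of EC80 dopamine-driven calcium flux, recorded kinetically, defines activity here; cells are a tetracycline-induced HEK293 T-REx line expressing force-coupled D2.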

Compared with CCCn1c(-c2ccc(S(=O)(=O)N3CCOCC3)cc2)csc1=Nc1ccc(OCC)cc1, COc1ccc(C(CNC(=O)COc2ccc(Cl)c(C)c2)N2CCOCC2)cc1 (stereo unspecified) is higher in inhibition: -0.45% for the first, 9.74% for the second.

Going from CC(C)Cn1c(=O)c2ccccc2n2c(CCC(=O)N3CCN(c4ccccc4F)CC3)nnc12 to Cc1cc(C)n(CCc2nc3c4ccccc4nc(N4CCN(c5ccccc5F)CC4)n3n2)n1, the inhibition rises from -12.7% to 10.7%.

Going from Cc1ccc2nc(-c3ccc(O)cc3)c(Nc3ccc4c(c3)OCCO4)n2c1 to Cc1ccc(-c2nc(N3CCN(c4ccccc4Cl)CC3)c3ccccc3n2)cc1, the inhibition rises from 2.94% to 11.6%.

Compared with CCCSCCCNC(=O)C1CCN(c2nn3cc(-c4ccc(F)cc4)nc3s2)CC1, CCN(CC)CCNC(=O)c1ccc2c(c1)sc1nc(-c3ccc(F)cc3)cn12 is lower in inhibition: 26.5% for the first, 0.322% for the second.

Compared with O=C(NCc1ccccc1Cl)C(=O)NCC(c1cccs1)S(=O)(=O)c1cccs1 (stereo unspecified), COc1ccc(CNC(=O)CN(c2ccccc2)S(=O)(=O)N(C)C)cc1 is higher in inhibition: -21.8% for the first, 6.44% for the second.

First: CCn1cc(C(=O)N2CCN(c3cccc(Cl)c3)CC2)c(=O)c2cc(S(=O)(=O)N3CCCCC3)ccc21
Second: Cc1nc(N2CCCC2)c2c(C(=O)N3CCN(c4cccc(Cl)c4)CC3)c(C)oc2n1
The inhibition of the first is higher: 20.2% for the first, 5.02% for the second.

Going from COc1ccc(OC)c(NC(=O)Cn2c(=O)n(Cc3ccccc3)c(=O)c3ccccc32)c1 to Cc1ccc(Cl)cc1NC(=O)CSC1=Nc2ccccc2C2=NC(Cc3ccccc3)C(=O)N12 (stereo unspecified), the inhibition falls from 5.83% to 3.76%.

First: COc1ccc(OC)c(NC(=O)N2CCN(S(=O)(=O)c3ccc4c(ccn4C)c3)CC2)c1
Second: CCN1CCN(c2c(S(=O)(=O)c3ccc(OC)cc3)cnc3cc(OC)c(OC)cc23)CC1
The inhibition of the first is lower: -14.8% for the first, 3.1% for the second.

Going from COc1ccc(C(CNC(=O)c2oc3ccc(C)cc3c2C)N2CCOCC2)cc1 (stereo unspecified) to Cc1ccc(NC(=O)c2oc3ccc(S(=O)(=O)N(C)C4CCCCC4)cc3c2C)cc1Cl, the inhibition rises from 0.557% to 27.7%.

Compared with Cc1c(C(=O)NCc2ccccc2Br)oc2c1-c1[nH]ncc1CC2, CSc1nc2sc3c(c2c(=O)n1-c1ccccc1C)CCCC3 is lower in inhibition: 11% for the first, -1.11% for the second.

First: CCc1ccc(S(=O)(=O)c2nnn3c2nc(NC2CCCCCC2)c2sccc23)cc1
Second: CCS(=O)(=O)N1CC(=O)N(c2cccc(Cl)c2C)C(C)(C(=O)NC2CCCCC2)C1 (stereo unspecified)
The inhibition of the first is higher: 6.75% for the first, -12.1% for the second.

Compared with COc1cccc2c1Oc1ncccc1N(C(=O)Nc1ccc(F)c(Cl)c1)C2, COc1ccc(NC(=O)Cn2nc(-c3ccncc3)ccc2=O)cc1Cl is lower in inhibition: -0.823% for the first, -13.2% for the second.

Compared with CCOC(=O)C(CC)Sc1ccc2nnc(CCNS(=O)(=O)c3ccc(C)cc3)n2n1 (stereo unspecified), CCN(c1ccc(OC)cc1)S(=O)(=O)c1nnc(NC(=O)c2ccccc2Cl)s1 is higher in inhibition: -0.128% for the first, 11.4% for the second.

First: CCOCCCNC(=O)C1CCC(CNS(=O)(=O)c2ccc(NC(C)=O)cc2)CC1 (stereo unspecified)
Second: CCOc1ccc(NC(=O)C(NC(=O)C2CCC(C)CC2)C(C)C)cc1 (stereo unspecified)
The inhibition of the first is lower: -0.947% for the first, 21.6% for the second.

Compared with Cc1ccc(C)c(CN2C(=O)c3ccccc3S(=O)c3ccc(C(=O)NCc4ccccc4)cc32)c1 (stereo unspecified), Cc1ccc(CNC(=O)c2ccc(Cn3c(SCc4ccccc4F)nc4cccnc43)cc2)cc1 is lower in inhibition: 1.83% for the first, -0.457% for the second.

Compared with COc1ccc(NC(=O)c2ccc(-c3nc(CSc4ccccc4)c(C)o3)cc2)cc1OC, COc1ccc(-c2nc(CSCC(=O)N3CCN(c4ccc(OC)cc4)CC3)c(C)o2)cc1 is lower in inhibition: -6.13% for the first, -18.1% for the second.

Compared with COc1ccccc1Cc1nc2ccccc2[nH]c1=O, CC(=O)Nc1cc(NC(C)=O)cc(-c2nc3ccccc3[nH]2)c1 is higher in inhibition: -3.2% for the first, 2.49% for the second.

First: Cc1cc(C)cc(NS(=O)(=O)c2ccc3c(c2)NC(=O)C(C)S3)c1 (stereo unspecified)
Second: Cc1cc(C)cc(NC2=CC(c3cccc(F)c3)N(c3cc(C)cc(C)c3)C2=O)c1 (stereo unspecified)
The inhibition of the first is higher: -3.31% for the first, -7.5% for the second.

First: CCn1c(C(=O)N2CCC(C(=O)NCCc3ccc(OC)cc3OC)CC2)cc2sccc21
Second: CCCN1CCN(CCNC(=O)Nc2ccc(OC)c(OC)c2)CC1
The inhibition of the first is higher: 6.46% for the first, -18.8% for the second.

Going from CCOC(=O)c1c(C)oc2nc(C)nc(Nc3ccc(CC)cc3)c12 to CCOC(=O)c1cc(-c2ccccc2)n(CC(=O)N(C)c2ccc(OC)cc2)c1C, the inhibition falls from 9.04% to 2.93%.

Going from CCCCSc1ncnc2c1c(-c1ccccc1)cn2-c1cccc(F)c1 to O=c1c(=O)n(-c2cccc(Cl)c2)ccn1Cc1cccc(F)c1, the inhibition rises from -5.4% to 1.33%.

Going from CCN(CC)S(=O)(=O)c1nnc(NC(=O)COc2ccc(Cl)cc2)s1 to CCN(c1ccccc1)c1nnc(NC(=O)Nc2cccc(Br)c2)s1, the inhibition rises from -22.9% to 0.668%.

First: CCOC(=O)Cn1cnc2onc(-c3ccc(F)cc3)c2c1=O
Second: Cc1ccc(Cn2ccnc2SCC(=O)NCc2ccc(F)cc2)cc1
The inhibition of the first is lower: -18.5% for the first, -3.68% for the second.

First: CCOC(=O)c1cc2c(=O)n3ccccc3nc2n(CCCOC)c1=NC(=O)C(C)Oc1ccccc1 (stereo unspecified)
Second: O=C1CC(c2nc3ccccc3n2CCCOc2ccccc2)CN1c1ccc(F)cc1 (stereo unspecified)
The inhibition of the first is lower: 7.35% for the first, 7.43% for the second.

Compared with CC1CCN(C(=O)Cn2c(=O)oc3cc(S(=O)(=O)N4CCCCC4)ccc32)CC1, CCOC(=O)C1CCN(CC(=O)N2CCCc3c2c(=O)oc2ccc(OCc4ccccc4)cc32)CC1 is lower in inhibition: 7.67% for the first, -5.62% for the second.

First: CN(C)S(=O)(=O)c1ccc(C(=O)N2CC(=O)Nc3ccc(Br)cc3C2c2ccc(F)cc2)cc1 (stereo unspecified)
Second: CCOC(=O)C1CCC(CN(Cc2ccc(Cl)cc2)S(=O)(=O)c2ccc(Br)cc2)CC1 (stereo unspecified)
The inhibition of the first is lower: -14.4% for the first, -10.4% for the second.

Going from CCOc1cc(CNc2ccc(O)cc2)ccc1OCc1ccc(Cl)cc1 to COc1ccc(CCNc2ncnc3c2cnn3-c2cccc(Cl)c2)cc1, the inhibition falls from -8.22% to -14.5%.

First: CCN1CCN(c2c(S(=O)(=O)c3ccc(C)c(C)c3)cnc3cc(OC)c(OC)cc23)CC1
Second: CCOc1ccc(NC(=O)c2cn(C)c(=O)c3cc(OC)c(OC)cc23)cc1
The inhibition of the first is higher: 2.18% for the first, -10.5% for the second.

Going from Cc1cccc(-n2c(=O)c3c4c(sc3n3cnnc23)CCCC4)c1 to CCN(CC)C(=O)c1sc2c(c1C)c(=O)n(-c1ccccc1)c(=O)n2CC(=O)Nc1ccc(C)cc1C, the inhibition rises from -11.5% to 1.05%.

Going from Cc1cc(=O)n(Cc2cccc(Cl)c2)c2c1c(C)nn2-c1ccccc1 to COc1ccc(OCCCCn2c(C3CC(=O)N(c4cccc(Cl)c4)C3)nc3ccccc32)cc1 (stereo unspecified), the inhibition falls from -6.42% to -14.9%.

First: CCCCC(CC)CNC(=O)CCCn1c(=O)[nH]c2ccsc2c1=O (stereo unspecified)
Second: COCCNC(=O)CCCN1C(=O)c2ccccc2Sc2ncccc21
The inhibition of the first is lower: -13.8% for the first, -6.28% for the second.

Compared with COc1cc(-c2nc(Cn3nnc(C(=O)Nc4cc(C)cc(C)c4)c3C)c(C)o2)cc(OC)c1OC, COc1cccc(-c2nc(CSCC(=O)NCCc3ccc(Cl)cc3)c(C)o2)c1 is higher in inhibition: -6.28% for the first, 4.42% for the second.

Compared with COc1ccc(C)cc1Nc1nc(-c2cccc(Cl)c2)c2c(n1)-c1ccccc1OC2, C=Cc1ccc(CSc2nc(-c3ccccc3Cl)nc3c2Cc2c(CO)cnc(C)c2O3)cc1 is lower in inhibition: 6.79% for the first, 0.277% for the second.

First: CCCCN(CCCC)CC(O)Cn1cc(/C=C/C(=O)c2ccccc2)c2ccccc21 (stereo unspecified)
Second: CCN(CCCNC(=O)c1cc2cc3ccc(C)cc3nc2s1)c1ccccc1
The inhibition of the first is higher: 12.1% for the first, -27.9% for the second.

Compared with COc1cccc2c1cc1c(=O)n(CC(=O)NC3CC3)nc(C)n12, C#CC(C)(CC)NC(=O)c1cnn2c(C(F)F)cc(-c3ccccc3OC)nc12 (stereo unspecified) is lower in inhibition: 13.3% for the first, -12.7% for the second.

Going from O=S(=O)(c1cccc(F)c1)N1CCC(c2nc3ccccc3s2)CC1 to CN1C(=O)C2(SCC(=O)N2c2cccc(C(F)(F)F)c2)c2ccccc21 (stereo unspecified), the inhibition rises from -20.6% to -7.76%.

Going from CCCN(c1ccccc1CC)S(=O)(=O)c1ccc2c(c1)CC(C)N2C(=O)C1CC1 (stereo unspecified) to CCS(=O)(=O)N1CCc2cc(C(=O)NCCc3ccccc3)ccc21, the inhibition rises from -6.75% to -6.3%.

Going from COc1ccc(-c2onc(C)c2C)cc1S(=O)(=O)N(C)Cc1ccco1 to CN(C)CCNC(=O)CCCN1C(=O)c2cccnc2Oc2ccc(Cl)cc21, the inhibition rises from 2.25% to 6.51%.

First: Cc1ccc(NC(=O)/C(C#N)=C/c2ccc(C)o2)cc1
Second: Cc1ccc(Nc2nc(C)cc(C)n2)c(C(=O)O)c1
The inhibition of the first is higher: -1.14% for the first, -14.7% for the second.

Compared with COc1ccc(NC(=O)CSc2nc3ccccc3n2CC(=O)N(C)c2ccc(F)cc2)cc1, CCc1ccc(NC(=O)CN2C(=O)C3(SCC(=O)N3c3ccccc3)c3ccccc32)cc1 (stereo unspecified) is lower in inhibition: 1.88% for the first, -12.1% for the second.

Compared with CC1(C)CC(=O)c2cc(-c3nc(-c4ccc(Cl)cc4)cs3)c(=O)n(-c3ccc(Cl)cc3)c2C1, Cc1ccc(N2CC(C)Cn3c2nc2c3c(=O)n(CC(=O)O)c(=O)n2C)cc1 (stereo unspecified) is lower in inhibition: 1.13% for the first, -3.17% for the second.

First: COCCCNC(=O)CSc1c2c(nc3ccc(Cl)cc13)CCCC2
Second: Cc1cc(C)cc(-n2ccn(CC(=O)Nc3ccccc3C(F)(F)F)c(=O)c2=O)c1
The inhibition of the first is higher: 10.9% for the first, -4.24% for the second.

Work on CCOc1ccc(C2c3c(oc4ccc(C)cc4c3=O)C(=O)N2Cc2ccc3c(c2)OCO3)cc1OC (stereo unspecified) yielded an inhibition of -2.92%.

In the case of COc1cc(OC)c(C2=Nc3ccc(Br)cc3C(c3ccccc3)N2CC(=O)NN)cc1OC (stereo unspecified), the inhibition is reported as active: 78.5%.
For COc1ccc(NC(=O)C2CCC(=O)N2S(=O)(=O)c2ccc(C)cc2)cc1Cl (stereo unspecified), the inhibition was active: 33.6%.
CC(C)=N/N=c1\scc(C)n1Cc1ccco1 was tested, and the inhibition was active: 39.9%.
O=C(CSc1ncc(-c2ccc(F)cc2)n1Cc1ccco1)Nc1ccc2c(c1)OCO2 was tested, and the inhibition was active: 36.6%.
In the case of CN(C)CCCNc1oc(-c2ccccc2Cl)nc1S(=O)(=O)c1ccccc1, the inhibition is reported as active: 86%.
With COc1ccc(CNCC2COc3ccccc3O2)cc1 (stereo unspecified) the inhibition was active: 140%.
CN(C)CCCn1c(SCC(=O)Nc2sc3c(c2C#N)CCCC3)nnc1-c1ccncc1 was tested, and the inhibition was active: 39.1%.
In the case of COCCNC(=S)N/N=C(\C)c1ccc(C)c([N+](=O)[O-])c1, the inhibition is reported as active: 32.3%.
With Cc1ccc[n+](C(C)C(=O)Nc2ccc(C)c([N+](=O)[O-])c2)c1 (stereo unspecified) the inhibition was active: 42.8%.
With Cn1c(=O)oc2cc(S(=O)(=O)NCCN3CCN(c4ccccc4F)CC3)ccc21 the inhibition was active: 76.5%.
With O=c1cc(-c2ccccc2)oc2cc(OCc3ccccc3)cc(O)c12 the inhibition was active: 50.7%.
